According to a collection of fitness landscapes (doi:10.1126/science.1257360):
The other results are listed elsewhere or left out.

B1: PhoQ; a variant is named by its letters at X, in order, P23837 (parent)
chain: MKKLLRLFFPLSLRVRFLLATAAVVLVLSLAYGMVALIGYSVSFDKTTFRLLRGESNLFYTLAKWENNKLHVELPENIDKQSPTMTLIYDENGQLLWAQRDVPWLMKMIQPDWLKSNGFHEIEADVNDTSLLLSGDHSIQQQLQEVREDDDDAEMTHSVAVNVYPATSRMPKLTIVVVDTIPVELKSSYMVWSWFIYVLSANLLLVIPLLWVAAWWSLRPIEALAKEVRELEEHNRELLNPATTRELTSLVRNLNRLLKSERERYDKYRTTLTDLTHSLKTPLXXLQXXLRSLRSEKMSVSDAEPVMLEQISRISQQIGYYLHRASMRGGTLLSRELHPVAPLLDNLTSALNKVYQRKGVNISLDISPEISFVGEQNDFVEVMGNVLDNACKYCLEFVEISARQTDEHLYIVVEDDGPGIPLSKREVIFDRGQRVDTLRPGQGVGLAVAREITEQYEGKIVAGESMLGGARMEVIFGRQHSAPKDE

Variants of: B1
Experiment: enrichment ratio after two sorts for PhoP signalling (ratio (wild type AVST 3.29)); higher = more functional
Details: with PhoP (E. coli)

Variant	enrichment ratio
DPCR	≤ 0.25
RLNA	≤ 0.25
PMER	≤ 0.25
MIAK	≤ 0.25
QGGM	4.35
MNSI	5.63
QRKL	≤ 0.25
TQCW	0.964
YMGR	≤ 0.25
WPIW	≤ 0.25
KEIE	≤ 0.25
IYIV	≤ 0.25
KFPC	≤ 0.25
VNPL	≤ 0.25
VKMF	≤ 0.25
RYGQ	≤ 0.25
ESAC	≤ 0.25
NKWP	≤ 0.25
GEVV	17.2
HPQA	≤ 0.25
FFND	≤ 0.25
FKIH	≤ 0.25
KCYT	≤ 0.25
YQFW	≤ 0.25

Variant	enrichment ratio
WRLE	≤ 0.25
PRYF	≤ 0.25
KSTQ	≤ 0.25
NSRH	≤ 0.25
GRYR	≤ 0.25
SIPI	8.91
MHCQ	≤ 0.25
PQGK	≤ 0.25
HWRF	≤ 0.25
AGFK	≤ 0.25
WRHR	≤ 0.25
INHF	≤ 0.25
PQWI	≤ 0.25
GKWM	≤ 0.25
PCFP	≤ 0.25
ALNH	≤ 0.25
REET	≤ 0.25
EYWC	≤ 0.25
GWHR	≤ 0.25
SRWT	≤ 0.25
MKMW	≤ 0.25
FRSN	≤ 0.25
YWNA	≤ 0.25
LHHS	≤ 0.25

Variant	enrichment ratio
FNPM	≤ 0.25
QMCI	≤ 0.25
YMWD	≤ 0.25
NMRK	≤ 0.25
FDDW	≤ 0.25
HKGV	≤ 0.25
NAPC	≤ 0.25
QDIE	≤ 0.25
WCRT	≤ 0.25
VKIH	≤ 0.25
LTAS	≤ 0.25
FARW	≤ 0.25
KTID	≤ 0.25
GLCG	9.3
VLSK	≤ 0.25
TPMQ	≤ 0.25
DPYY	≤ 0.25
SEWK	≤ 0.25
NIPG	≤ 0.25
NYII	≤ 0.25
SQGR	≤ 0.25
HTLD	≤ 0.25
HWFF	≤ 0.25
GMEL	≤ 0.25

Variant	enrichment ratio
GRNC	≤ 0.25
EHYG	≤ 0.25
TYAR	≤ 0.25
TDAN	≤ 0.25
WRYV	≤ 0.25
PREV	≤ 0.25
FWMI	≤ 0.25
LFNP	≤ 0.25
EGMV	≤ 0.25
VRHE	≤ 0.25
TCCR	13.1
NACR	≤ 0.25
YTYP	≤ 0.25
TPTW	≤ 0.25
AYHF	≤ 0.25
DECQ	≤ 0.25
AVQG	≤ 0.25
PMLL	≤ 0.25
AEDQ	≤ 0.25
KVYK	≤ 0.25
VYIM	≤ 0.25
EMDP	≤ 0.25
FSSY	0.259
LKGQ	≤ 0.25

Variant	enrichment ratio
RAAD	≤ 0.25
FWLV	≤ 0.25
NGWW	≤ 0.25
VGFF	≤ 0.25
IEMW	≤ 0.25
LSLR	≤ 0.25
NEFM	≤ 0.25
FHLA	≤ 0.25
IAKS	≤ 0.25
AWNA	≤ 0.25
WYQS	≤ 0.25
TTTC	5.52
TGFL	1.48
IYTA	≤ 0.25
RELT	≤ 0.25
NQPW	≤ 0.25
WKQY	≤ 0.25
WTSQ	≤ 0.25
DDCI	≤ 0.25
SNHK	≤ 0.25
TNKP	≤ 0.25
GWSD	≤ 0.25
FTHF	≤ 0.25
FPAT	≤ 0.25

Variant	enrichment ratio
PAKF	≤ 0.25
YDGS	≤ 0.25
NMMC	≤ 0.25
PHAS	≤ 0.25
NSER	≤ 0.25
DKVQ	≤ 0.25
FVIS	≤ 0.25
MESL	13.9
MSLT	4.06
HKSF	≤ 0.25
RSWE	≤ 0.25
EWIH	≤ 0.25
FTHI	≤ 0.25
YHLD	≤ 0.25
QIHI	≤ 0.25
QHTV	≤ 0.25
AMWI	≤ 0.25
ESSP	≤ 0.25
SPPN	≤ 0.25
DRLE	≤ 0.25
MTSH	0.592
SQIY	7.92
SGPN	≤ 0.25
RVTD	≤ 0.25

Variant	enrichment ratio
ATAG	≤ 0.25
MSIC	≤ 0.25
PVWC	≤ 0.25
DNFH	≤ 0.25
PFMM	≤ 0.25
THFV	1.1
HMRD	≤ 0.25
PHHE	≤ 0.25
LADQ	≤ 0.25
AGWP	≤ 0.25
ETAY	≤ 0.25
HMPI	≤ 0.25
NTII	≤ 0.25
QAQL	≤ 0.25
GEDN	≤ 0.25
QQRS	≤ 0.25
DNDD	≤ 0.25
SYIR	≤ 0.25
VVGD	≤ 0.25
AYDG	≤ 0.25
WRFH	≤ 0.25
QQAT	≤ 0.25
APGQ	≤ 0.25
RQMS	≤ 0.25

Variant	enrichment ratio
LHHG	≤ 0.25
LIGN	≤ 0.25
AHQH	≤ 0.25
GECK	≤ 0.25
LYCA	≤ 0.25
YELN	2.61
YVGR	≤ 0.25
PQKG	≤ 0.25
HGLK	≤ 0.25
SQVC	9.75
WKTL	≤ 0.25
MDFL	≤ 0.25
FSDM	≤ 0.25
AHQF	≤ 0.25
TWKD	≤ 0.25
HAMC	≤ 0.25
NADM	≤ 0.25
MVAG	12.7
KIQY	≤ 0.25
EFTF	≤ 0.25
RCKD	≤ 0.25
NEYR	≤ 0.25
DQQG	≤ 0.25
PNGC	≤ 0.25

Variant	enrichment ratio
IWWI	≤ 0.25
QFKV	≤ 0.25
LTWA	≤ 0.25
AANH	≤ 0.25
KESM	≤ 0.25
FRQY	≤ 0.25
KDAA	≤ 0.25
TFEA	≤ 0.25
FLWN	≤ 0.25
ASLK	8.78
NTGN	≤ 0.25
DQYL	≤ 0.25
LNFF	≤ 0.25
YTFF	≤ 0.25
HKMA	≤ 0.25
YCWT	≤ 0.25
PCMD	≤ 0.25
RMGN	≤ 0.25
YYEQ	≤ 0.25
KHPP	≤ 0.25
HIPA	≤ 0.25
ENCL	≤ 0.25
HSYG	≤ 0.25
DTQL	≤ 0.25

Variant	enrichment ratio
TITC	12.2
KPGD	≤ 0.25
DWYQ	≤ 0.25
VKNN	≤ 0.25
KKDC	≤ 0.25
TLES	≤ 0.25
IVLN	≤ 0.25
LRDG	≤ 0.25
SHQG	≤ 0.25
FIFF	≤ 0.25
MNFH	0.752
LVQI	≤ 0.25
SMRH	≤ 0.25
VMAA	≤ 0.25
WHSS	≤ 0.25
YLQP	≤ 0.25
LAMV	1.74
WAAS	≤ 0.25
NFYT	≤ 0.25
LSFE	≤ 0.25
YFTS	≤ 0.25
DYNR	≤ 0.25
INVI	≤ 0.25
RHSR	≤ 0.25

Variant	enrichment ratio
SRDT	≤ 0.25
SGEI	≤ 0.25
MHSH	≤ 0.25
LAQG	≤ 0.25
LKCS	≤ 0.25
SISN	10.9
KRWA	≤ 0.25
TMTK	6.16
PCKF	≤ 0.25
EEAF	≤ 0.25
IVFE	≤ 0.25
MQMS	≤ 0.25
MPMC	≤ 0.25
IMDI	≤ 0.25
FWAP	≤ 0.25
FGGN	≤ 0.25
TNLK	≤ 0.25
AWFR	≤ 0.25
NKST	≤ 0.25
RGHA	≤ 0.25
ESED	≤ 0.25
MAPT	≤ 0.25
VVCY	≤ 0.25
PDPK	≤ 0.25

Variant	enrichment ratio
IGRC	≤ 0.25
DYDG	≤ 0.25
SLVG	2.81
QHMV	≤ 0.25
PKWP	≤ 0.25
WRWI	≤ 0.25
ARED	≤ 0.25
YQEH	≤ 0.25
DEFT	≤ 0.25
DLCH	≤ 0.25
KDGC	≤ 0.25
YVPV	≤ 0.25
QENH	70.4
MEFG	5.56
YQLD	≤ 0.25
DGYK	≤ 0.25
AIYT	0.296
ARTK	≤ 0.25
YTFD	≤ 0.25
PPYG	≤ 0.25
LTRH	≤ 0.25
GVMI	5.36
FHMM	≤ 0.25
MHFY	≤ 0.25

Variant	enrichment ratio
SVGN	3.41
NKLP	≤ 0.25
LLFR	≤ 0.25
YHQF	≤ 0.25
KIKN	≤ 0.25
IVLG	≤ 0.25
LGYL	6.08
LKIH	≤ 0.25
WMHH	≤ 0.25
PWPV	≤ 0.25
IFYR	≤ 0.25
APCY	≤ 0.25
WFAE	≤ 0.25
PRAD	≤ 0.25
LMDV	≤ 0.25
FGDM	≤ 0.25
DLFY	≤ 0.25
TSGS	8.89
